Results on one molecule are retold here after patent publication US20110189178A1 (Xencor, published 2011).

Experiment [1] addresses T1, recombinant human FcγRIIb (R&D Systems) (human, UniProt P31994 46-217, limits assumed).
T1 construct: also called CD32b
T1 sequence (looked up): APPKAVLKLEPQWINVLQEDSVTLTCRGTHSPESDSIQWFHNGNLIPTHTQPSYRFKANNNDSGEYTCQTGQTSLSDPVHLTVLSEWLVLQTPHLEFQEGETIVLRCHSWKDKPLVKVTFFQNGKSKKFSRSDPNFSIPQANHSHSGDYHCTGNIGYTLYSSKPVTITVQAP
The experiment in a line: Biacore SPR, Fc fusion captured on protein A, FcγRIIb injected.

The target in experiment [2] is T2, human FcγRIIIa, V158 isoform (human, UniProt P08637 fragment, limits assumed).
T2 construct: V158 allotype as printed; also called human V158 FcγRIIIa
The experiment in a line: Biacore SPR, Fc fusion captured on protein A, V158 FcγRIIIa injected.

T2 sequence (P08637 17-208 F176V limits assumed): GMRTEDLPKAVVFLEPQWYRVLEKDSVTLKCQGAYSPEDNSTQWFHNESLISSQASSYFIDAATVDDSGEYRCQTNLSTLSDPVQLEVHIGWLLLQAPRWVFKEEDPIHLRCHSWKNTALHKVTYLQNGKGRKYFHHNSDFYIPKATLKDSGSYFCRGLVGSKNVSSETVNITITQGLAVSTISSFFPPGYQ

B1: human MOG-Fc fusion, knockout (KO) variant 236R/328R (Fc fusion)
chain: GQFRVIGPRHPIRALVGDEVELPCRISPGKNATGMEVGWYRPPFSRVVHLYRNGKDQDGDQAPEYRGRTELLKDAIGEGKVTLRIRNVRFSDEGGFTCFFRDHSYQEEAAMELKVEDPFYWVSPG[human IgG1 Fc with C220S G236R L328R (EU numbers) not given here]
notes: Negative control; also called Fc(KO); Fc(KO) version
Regarding B1, the binding result in experiment [1] and in experiment [2] was “no binding” each time.
